Data taken from PubChem BioAssay AID485344 (National Center for Advancing Translational Sciences (NCATS), 2010).
Out of some 340,000 compounds screened, about 6,900 (2%) were called active. Cut-off read from the data, not from the text of the source: active = inhibition above about 30%; inactive = below that, where a call was filed. The list shows a part of the results, in another mix than the full data. The source gives no active or inactive call for entries shown without one.

molecular target: D(2) dopamine receptor (Homo sapiens) (UniProt P14416); experiment: HTS Assay for Allosteric Antagonists of the Human D2 Dopamine Receptor: Primary Screen for Antagonists; details: HEK293 TREx D2 cells, calcium flux, dopamine EC80; at 10 µM; stronger effect = higher value; note: 0% is about no effect
UniProt P14416, sequence (P14416 whole entry, looked up): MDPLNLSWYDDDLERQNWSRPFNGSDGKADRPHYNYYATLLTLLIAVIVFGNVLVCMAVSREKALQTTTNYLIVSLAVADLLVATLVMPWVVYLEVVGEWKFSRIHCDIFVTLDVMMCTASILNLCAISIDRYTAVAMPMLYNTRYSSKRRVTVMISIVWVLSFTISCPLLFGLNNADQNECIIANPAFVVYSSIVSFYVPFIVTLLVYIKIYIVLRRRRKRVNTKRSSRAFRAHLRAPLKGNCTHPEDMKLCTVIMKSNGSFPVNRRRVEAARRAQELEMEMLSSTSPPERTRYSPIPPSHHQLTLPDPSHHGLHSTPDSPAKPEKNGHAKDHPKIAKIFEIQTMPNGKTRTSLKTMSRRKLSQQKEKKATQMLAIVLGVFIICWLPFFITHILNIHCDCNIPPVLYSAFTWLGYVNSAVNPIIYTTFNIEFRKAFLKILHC
Outline: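 Calcium flux kinetic readout in an inducible HEK293 TREx D2 line plated overnight at 30 C. After 180 s compound exposure, an EC80 dopamine challenge follows with another 180 s kinetic read to detect antagonism.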

SMILES	inhibition
Cc1nc2nc(SCC(=O)NC3CCCCC3)nn2c(C)c1Cc1ccccc1Cl	-3.07%
COCCNc1nc2c(c(=O)n(Cc3cccc(Br)c3)c(=O)n2C)n1C	1.93%
COc1ccccc1CNC(=O)CCC1N=C2c3ccccc3N=C(SCC(=O)Nc3ccc(N(C)C)cc3)N2C1=O (stereo not given)	16%
COc1ccc(S(=O)(=O)N2CCCN(CC(=O)Nc3ccc(OC)cc3OC)CC2)cc1	-4.95%
Cc1c(C(=O)N(C)C)sc2c1c(=O)n(-c1ccc(Cl)cc1)c(=O)n2Cc1ccccc1F	2.1%
CCOC(=O)c1c(C)[nH]c(C)c1S(=O)(=O)N1CCCC(C(=O)NCc2cccc(OC)c2)C1 (stereo not given)	-5.57%
Cc1cc(C(=O)N2CCN(c3cccc(C)c3C)CC2)c2c(C)nn(-c3ccccc3)c2n1	-6.38%
CCOC(=O)c1sc(NC(=O)C2c3ccccc3Oc3ccccc32)c(C#N)c1C	-12.2%
COc1cccc(-c2ccc3c(N)c(C(=O)Nc4cc(C(F)(F)F)ccc4OC)sc3n2)c1	18.7%
Cc1ccc(C(=O)c2cn(CC(=O)NCc3ccccc3Cl)c3nc(C)ccc3c2=O)cc1	15.6%
O=C1C2CCCN2C(=O)N1CCCCN1CCN(c2cccc(Cl)c2)CC1 (stereo not given)	active: 79.6%
CC(=O)N1CCN(c2ccc(NCc3ccc(C)s3)cc2)CC1	active: 50%
Cc1ccccc1C(=O)Nc1nnc2n1CCS2	0.165%
Cc1ccc(C)c(NC(=O)CN(C)S(=O)(=O)c2ccc3c(c2)CCC(=O)N3)c1	9.85%
CC(C)NC(=O)N1CCN(S(=O)(=O)c2ccc3c(ccn3C)c2)CC1	0.0475%
CCOC(=O)c1cc(-c2ccc(OC)cc2)n(CCC(=O)NCc2ccc(OC)cc2)c1C	1.93%
COc1ccc(/C=C\c2onc(C)c2S(=O)(=O)N2CCC(C(=O)Nc3ccc(F)cc3F)CC2)cc1	-2.16%
CCOc1ccccc1NC(=O)NCc1ccc2c(c1)CCN2C(=O)c1ccccc1	-23.1%
Cc1ccc(-c2nc3nc(C)cc(N4CCN(c5cccc(C)c5C)CC4)n3n2)cc1	-6.47%
CN(C)c1ccc(CN(Cc2ccco2)C(=O)c2ccc(C(C)(C)C)cc2)cc1	0.76%

SMILES	inhibition
O=C(NCCc1ccc(Cl)cc1)c1cnc2sc(N3CCOCC3)nn2c1=O	-0.334%
Cc1oc(-c2cccc(Cl)c2)nc1CSc1nncn2c1cc1occc12	-8.5%
COc1ccc(CC(=O)Nc2ccc3nc(Nc4ccc(OC)cc4)cc(C)c3c2)cc1	5.06%
CCc1ccc(CNC(=O)c2cc(=O)[nH]c3ccc(S(=O)(=O)N4CCCCC4)cc23)cc1	-3.29%
Cc1c(Cl)ccc2sc(N3CCN(C(=O)C(C)C)CC3)nc12	16.9%
CCOC(=O)c1c(NC(=O)c2cc(C(C)C)on2)sc(C(C)=O)c1C	-1.58%
CCOC(=O)c1c(C)oc2nc(C)nc(Nc3ccc(C)c(Cl)c3)c12	-3.88%
Cc1ccc(Sc2c(C)nn(-c3ccccc3)c2OC(=O)C(C)(C)C)cc1	13.2%
CCOc1ccc(NC(=O)CC2C(=O)N(c3ccc(F)cc3)C(=O)N2Cc2ccc(OC)c(OC)c2)cc1 (stereo not given)	5.87%
COc1ccc(OC)c(NS(=O)(=O)c2cc3c(cc2Cl)N(C(C)=O)CCO3)c1	8.2%
COC(=O)c1c(NC(=O)C(C)Oc2ccc(Cl)c(C)c2)sc(C)c1C (stereo not given)	-4.71%
Cc1ccc(-c2cc(C(=O)Nc3cc([N+](=O)[O-])ccc3C)no2)cc1F	-12.2%
Cc1ccccc1C(=O)NCCNc1ccc([N+](=O)[O-])cc1	active: 32.8%
CCN1C(=O)c2ccccc2S(=O)c2ccc(C(=O)NCc3ccc(OC)cc3)cc21 (stereo not given)	active: 81.4%
O=C(CSc1nc2cc(C(=O)NC3CCCC3)ccc2c(=O)n1CC1CCCO1)c1cccc(Cl)c1 (stereo not given)	8.38%
Cc1ccc(C)c2sc(NC(=O)c3ccc(S(=O)(=O)N4CCC(C)CC4)cc3)nc12	-25.9%
COc1ccccc1NC(=O)CSc1nnc(N)s1	-0.579%
COc1ccc(CCNc2oc(/C=C/c3cc(OC)c(OC)c(OC)c3)nc2C#N)cc1OC	1.71%
CCOC(=O)c1ccc(N2C(=O)c3n[nH]c(-c4cccs4)c3C2c2ccc(OCC)cc2)cc1 (stereo not given)	0.348%
COc1ccc(OC)c(CCNC(=O)CS(=O)(=O)Cc2nc(-c3cccc(Cl)c3)oc2C)c1	-5.11%

SMILES	inhibition
CC12CN3CC(c4ccccc4)(CN(C1)C3c1ccc(O)cc1)C2=O (stereo not given)	3.59%
CCOC(=O)c1c(NC(=O)C(C)Sc2cn(CCNC(=O)c3c(F)cccc3F)c3ccccc23)sc2c1CCC2 (stereo not given)	-2.82%
Cn1c(=O)oc2cc(S(=O)(=O)NC(Cc3ccccc3)C(=O)Nc3ccc(F)cc3)ccc21 (stereo not given)	24.8%
CCn1c(C(=O)NCc2ccc(F)cc2)cc2oc3ccccc3c21	12.6%
COc1cccc(CNC(=O)c2cc(C)nc3c2c(C)nn3-c2ccc(C)cc2)c1	-9.42%
COc1cccc(-n2c(=O)c3c(C)c(C)sc3n(CC(=O)NCCc3ccc(OC)c(OC)c3)c2=O)c1	-19.5%
Cc1ccc(Cn2c(C(=O)O)c(CNCc3ccc(OC(C)C)cc3)c3ccc(C)cc32)cc1	13.2%
COc1cc(OC)c(NC(=O)C2CCN(S(=O)(=O)c3c(C)noc3/C=C/c3c(C)cc(C)cc3C)CC2)cc1Cl	-8.69%
COc1ccc(OC)c(NC(=O)CSc2ccc(-c3cccs3)nn2)c1	-4.88%
CN(Cc1ccccc1)C(=O)c1cn(C)c2ccc(S(=O)(=O)N3CCCCC3)cc2c1=O	5.59%
COc1cccc(OCc2nc3ccccc3n2CCOc2ccc(C)cc2)c1	11.5%
CCCN(C(=O)c1cc2c(=O)oc3ccccc3c2s1)c1ccc(CC)cc1	5.27%
CC(C)C(=O)Nc1ccc2nc(SCC(=O)N3CCCC3)sc2c1	7.89%
CCc1ccc(OCC(=O)NC(Cc2c[nH]c3ccccc23)C(=O)O)cc1 (stereo not given)	-23.9%
Cc1c(Cl)cccc1NC(=O)N1CCN(C(=O)c2nsc3ccccc23)CC1	13.3%
Cc1ccccc1Nc1cc(C(=O)NCCCN2CCN(c3cccc(Cl)c3)CC2)c2ccccc2n1	7.05%
Cc1ccc(C(C)C)c(OCCSc2nc(-c3ccccc3F)nc3cc(=O)[nH]n23)c1	4.65%
CCc1ccc(NC(=O)c2ccc(CN3CC(=O)N4CCCCC4C3=O)cc2)cc1 (stereo not given)	-8.48%
Cc1c(CCC(=O)NCCc2ccccc2)c(=O)oc2c(C)c(O)ccc12	9.21%
O=C(NCc1cccc(CNC(=O)C(=O)NCC2CCCO2)c1)C(=O)NCC1CCCO1 (stereo not given)	active: 30%
